The whole screen tested about 52,000 compounds, of which about 1,700 (3.3%) were called active. Rule as the data show it: active = survival mostly below about 52% (no sharp cut-off); inactive = mostly above about 56%. The list shows a part of the results.
Test system: Wild type
Experiment: S. aureus survival, RN4220 and DeltatarO strains – OD600, teichoic acid synthesis inhibitors, primary screen (AID 463173)
Details: S. aureus RN4220 wild type/DeltatarO growth, OD600, 18 h, hits give low values, screened at 18.75 µg/mL (by protocol)

Row | SMILES | survival
1 | CCOC(=O)Cc1ccc(NC(=O)N(C(C)C)C2CCN(C(C)=O)CC2)cc1 | inactive: 85%
2 | COC(=O)c1sccc1S(=O)(=O)N1CCN(c2ccc(C(C)=O)cc2)CC1 | inactive: 111%
3 | COc1ccc(Cl)cc1NC(=O)Cn1nnc(C(=O)NCc2ccc3c(c2)OCO3)c1N | inactive: 81%
4 | Cc1ccc(-c2cc(C(=O)Nc3c(C(=O)c4ccc(C)c(F)c4)oc4ccccc34)no2)cc1 | inactive: 93%
5 | CCOCCc1nn2c(=O)cc(COC(=O)c3cccc(C)c3)nc2s1 | active: -6%
6 | Cc1ccc(C)c(N2CCN(C(=O)C3CCCN(S(=O)(=O)c4cccc5nonc45)C3)CC2)c1 (stereo unspecified) | inactive: 77%
7 | CCOC(=O)c1c(NC(=O)CSc2cn(CCNC(=O)c3c(F)cccc3F)c3ccccc23)sc2c1CCCC2 | inactive: 69%
8 | Cc1ccc(Cn2c(CN3CCC(C(=O)NCC(C)c4ccccc4)CC3)cc3ccccc32)cc1 (stereo unspecified) | inactive: 132%
9 | CC(=O)c1ccc(NC(=O)c2cc(C3CC3)nc3c2c(C)nn3-c2ccc(C)cc2)cc1 | inactive: 64%
10 | COc1ccc(S(=O)(=O)NCCc2sc(-c3ccccc3)nc2C)cc1F | inactive: 72%
11 | Cc1ccc(Cl)cc1N1CCN(S(=O)(=O)c2ccc(-c3cnc(C4CC4)o3)cc2)CC1 | inactive: 68%
12 | Cc1nnc(Nc2ccc(C(=O)O)cc2)[nH]c1=O | inactive: 113%
13 | O=C(Cn1cc(S(=O)(=O)N2CCN(c3ccccc3F)CC2)c2ccccc2c1=O)Nc1ccc(F)cc1Cl | inactive: 129%
14 | COc1cc2c(C(=O)N3CCN(c4cc(Cl)ccc4C)CC3)cn(CC(C)C)c(=O)c2cc1OC | inactive: 73%
15 | CC(C)c1ccc(NC(=O)c2ccc(F)c(S(=O)(=O)N3CCN(c4ccccc4F)CC3)c2)cc1 | inactive: 111%
16 | O=C(Nc1ccccc1F)C(Cc1ccccc1)N1Cc2ccccc2C1=O (stereo unspecified) | inactive: 75%
17 | CC(C)c1ccc(NC(=O)CN2C(=O)CCc3cc(S(=O)(=O)N4CCOCC4)ccc32)cc1 | inactive: 68%
18 | Cc1ccc(C(C(=O)NC2CCCC2)N(C(=O)Cn2nnc3ccccc32)c2cnc3ccccc3c2)o1 (stereo unspecified) | inactive: 117%
19 | COc1ccc(C(=O)N2CCN(C(=O)COc3ccc(C)cc3)CC2)cc1OC | inactive: 77%
20 | COc1ccc(NC(=O)CN2CCN(c3ccccc3F)CC2)c(OC)c1 | inactive: 69%
21 | CN(C(=O)CSc1nnc2c3ccccc3n(C)c2n1)C1CCCCC1 | inactive: 95%
22 | CCCOc1ccc(-c2cccc(NS(=O)(=O)c3ccc(CC)cc3)c2)nn1 | inactive: 69%

Row | SMILES | survival
23 | CCCSCCCNC(=O)CN1C(=O)CCn2nc(-c3cn(C)c4ccccc34)cc21 | inactive: 98%
24 | CCOC(=O)c1ccc2nc(C)c(CC)c(Cl)c2c1 | inactive: 105%
25 | CCC(C)NC(=O)CCC(=O)NNc1nc2ccccc2c2nc(C)nn12 (stereo unspecified) | inactive: 134%
26 | CCC1=C(c2ccc(C)cc2)S(=O)(=O)N=C1N1CCC(C(=O)NCc2ccc(C)cc2)CC1 | inactive: 81%
27 | Cc1ccc(C(=O)/C=C/c2cn(CC(O)CN3CCCCCC3)c3ccccc23)cc1 (stereo unspecified) | active: 28%
28 | Cc1ccc(NC(=O)CSc2nccn2Cc2ccc3c(c2)OCO3)c(C)c1 | inactive: 91%
29 | Cc1cc(C)c(NC(=O)CN(C)S(=O)(=O)c2ccc3c(c2)c(=O)n(C)c(=O)n3C)c(C)c1 | inactive: 82%
30 | Cc1ccc(-c2nn3c(=O)cc(CN4CCN(C(=O)c5ccc(C(C)(C)C)cc5)CC4)nc3s2)cc1 | inactive: 80%
31 | CCc1ccc(S(=O)(=O)n2ccnc2)cc1 | inactive: 66%
32 | COCCn1c(=NC(=O)c2ccc3c(c2)OCCO3)sc2cc(NC(C)=O)ccc21 | inactive: 71%
33 | O=C(Nc1ccc(F)cc1F)N1CCc2c(sc3c2CCCC3)C1c1ccc(F)cc1 (stereo unspecified) | inactive: 74%
34 | COc1cc(NS(=O)(=O)c2ccc(NC(=O)c3ccc(OC)c(Br)c3)cc2)nc(OC)n1 | inactive: 88%
35 | Cc1onc(-c2ccccc2)c1C(=O)N1CCOCC1 | inactive: 115%
36 | CCc1cccc(NC(=O)C(Cc2ccccc2)NS(=O)(=O)c2ccc3c(c2)c(=O)n(C)c(=O)n3C)c1 (stereo unspecified) | inactive: 68%
37 | COc1ccc(-c2nc3sc(CCNS(=O)(=O)c4c(C)cc(C)cc4C)c(C)n3n2)cc1 | active: -3%
38 | COc1cc(Cl)c(C)cc1Nc1nnc(-n2nc(C)cc2C)c2ccccc12 | inactive: 153%
39 | Cc1cc(SCC(=O)Nc2nsc(-c3ccc(C(C)(C)C)cc3)n2)nc2ccccc12 | active: 7%
40 | COc1cccc(N2CCN(C(=O)c3c4c(nc5ccccc35)C(=O)N(C3CCCCC3)C4)CC2)c1 | inactive: 88%
41 | CN(C)CCSc1nnc(-c2ccccc2)o1 | inactive: 103%
42 | COc1ccccc1OCC(=O)N/N=C1/SCC(=O)N1Cc1ccccc1 | inactive: 106%
43 | COc1ccc(OCc2nc(C#N)c(NCc3ccccc3Cl)o2)cc1 | inactive: 44%
44 | COc1cccc(NC(=O)C2CCCN2S(=O)(=O)c2ccc3nc(-c4ccccc4)[nH]c3c2)c1 (stereo unspecified) | inactive: 57%

Row | SMILES | survival
45 | COc1ccccc1N1CCN(S(=O)(=O)c2ccc(-n3cnnn3)cc2)CC1 | inactive: 93%
46 | CCOC(=O)N1CCc2c(sc3c2c(=O)n(-c2ccc(CC)cc2)c(=O)n3Cc2cccc(OC)c2)C1 | inactive: 80%
47 | CC(=O)Nc1cccc(NC(=O)Cc2csc(COc3cccc(C)c3)n2)c1 | inactive: 90%
48 | COc1ccc(NS(=O)(=O)c2ccc3c(c2)NC(=O)CCS3)c(OC)c1 | inactive: 64%
49 | CCOc1ccc(C2c3c(oc4cc(C)c(C)cc4c3=O)C(=O)N2c2ccccn2)cc1 (stereo unspecified) | inactive: 70%
50 | CCC(C(=O)Nc1cc(C)ccc1OC)n1nnc(C(=O)OC)c1C(=O)OC (stereo unspecified) | inactive: 89%
51 | CCc1ccc(S(=O)(=O)N(C(C)=O)c2ccc3oc4c(c3c2)CCCC4)cc1 | inactive: 105%
52 | CCOc1ccc(C(=O)Nc2ccc3c(c2)N(C(C)=O)CCC3)cc1OCC | inactive: 97%
53 | Cc1ccc(-n2nc3c(N4CCC(C(=O)N(C)Cc5ccccc5)CC4)nnc(C)c3c2C)cc1 | inactive: 97%
54 | Cc1ccc(C)c(S(=O)(=O)n2nc(C)c(S(=O)(=O)N3CCC(C)CC3)c2C)c1 | inactive: 51%
55 | CC(=O)N1c2ccc(S(=O)(=O)NCC3CCC(C(=O)Nc4cc(C)cc(C)c4)CC3)cc2CC1C (stereo unspecified) | inactive: 124%
56 | CN(C)c1ccc(CN(Cc2ccco2)C(=O)c2ccc(F)cc2)cc1 | inactive: 97%
57 | Cc1ccc(-n2cnc3ccccc3c2=O)cc1C | inactive: 89%
58 | O=C(NCCN1CCCCC1)c1ccc(Cn2c(SCc3ccc(F)cc3)nc3cccnc32)cc1 | inactive: 90%
59 | COc1ccc(C(=O)Nc2nc3nc(C)c(Cl)c(=O)n3[nH]2)cc1 | inactive: 89%
60 | Cc1oc(-c2ccccc2Cl)nc1CS(=O)(=O)CC(=O)NC(C)CCc1ccccc1 (stereo unspecified) | inactive: 76%
61 | COc1ccc(NC(=O)CC2C(=O)N(c3cccc(OC)c3)C(=O)N2Cc2cccnc2)cc1 (stereo unspecified) | inactive: 75%
62 | COc1ccc(OC)c(NC(=O)C(NS(=O)(=O)c2ccc3c(c2)CCCC(=O)N3)C(C)C)c1 (stereo unspecified) | inactive: 77%
63 | Cc1ccc2nc(Cl)c3cc(C(=O)NC4CCCCC4)sc3c2c1 | inactive: 76%
64 | CN1CCc2nc3sc(C(=O)Nc4c(F)cccc4F)c(N)c3cc2C1 | inactive: 155%
65 | CCOC(=O)c1ccc(NC(=O)c2nsc3ccccc23)cc1 | inactive: 79%
66 | CCOC(=O)c1cc(S(=O)(=O)N2CCN(c3cc(Cl)ccc3C)CC2)[nH]n1 | inactive: 120%

Row | SMILES | survival
67 | Cc1ccc(-c2cnc(NCc3c(F)cccc3Cl)n2C)cc1 | active: -12%
68 | CCOc1ccc(NC(=O)Cn2c(=O)c(CNc3ccc(OC)cc3)cc3ccc(OC)cc32)cc1 | inactive: 78%
69 | Cc1nc(-c2cccc(S(=O)(=O)N3CCC(C(=O)NCc4ccccc4)CC3)c2)no1 | inactive: 120%
70 | Cc1cc(=O)n2nc(N3CCC(C(=O)NCc4ccccc4Cl)CC3)sc2n1 | inactive: 93%
71 | CCc1ccc(OCC(=O)Nc2c(C(=O)c3ccccc3)oc3ccccc23)cc1 | inactive: 65%
72 | CN(C)c1ccc(C(C(=O)NCC2CCCO2)N(C(=O)Cn2nnc3ccccc32)c2ccc3c(c2)OCO3)cc1 (stereo unspecified) | inactive: 113%
73 | CCCN(C(=O)Cn1cnc2sc(C)c(S(=O)(=O)N3CCN(c4ncccn4)CC3)c2c1=O)c1cccc(C)c1 | inactive: 119%
74 | COC(=O)/C=C1/C(=O)N(C(C)=O)c2ccccc21 | inactive: 108%
75 | Cc1ccccc1NC(=O)CCc1c(C)nc2c(c1C)c(=O)n(C)c(=O)n2C | inactive: 74%
76 | COc1ccc(NS(=O)(=O)c2ccc3c(c2)oc(=O)n3C)cc1Cl | inactive: 82%
77 | COc1cccc(NC(=O)c2nnn(Cc3cccc(C(F)(F)F)c3)c2N)c1 | inactive: 87%
78 | COc1ccc(OC)c(S(=O)(=O)Nc2ccc3[nH]c(=O)[nH]c3c2)c1 | inactive: 89%
79 | Cc1cccc(CN2C(=O)c3ccccc3S(=O)(=O)c3ccc(C(=O)N4CCCC4)cc32)c1 | inactive: 91%
80 | Cc1ccc(S(=O)(=O)c2nnn3c2nc(N2CCCCC2)c2sccc23)cc1 | inactive: 115%
81 | CCN(CC)S(=O)(=O)c1ccc(NC(=O)[C@H](CCSC)N2Cc3ccccc3C2=O)cc1 | inactive: 84%
82 | CCn1ccc2cc(S(=O)(=O)N3CCCN(C(=O)Nc4ccc(C)cc4)CC3)ccc21 | inactive: 45%
83 | O=C(Nc1nnc(C2CCCCC2)s1)c1ccc2c(c1)OCO2 | inactive: 116%
84 | Cc1cccc(Cn2c(-c3cccs3)nc3ccccc32)c1 | active: -6%
85 | CCOc1ccc(Cn2c(CNS(=O)(=O)c3cccs3)nc3cccnc32)cc1 | inactive: 124%
86 | Cn1c(=O)c2c(nc(SCC(=O)Nc3ccc(F)cc3)n2Cc2ccc(Cl)cc2)n(C)c1=O | inactive: 61%

Reference: PubChem BioAssay AID463173 (ICCB-Longwood Screening Facility, Harvard Medical School, 2010)
